In one assay the target is hM3R(3A)-EYFP (human) (UniProt P20309). Description: FRET or BRET; CFP/YFP photometry on single live HEK293T (tsA-201) cells; labelled pair with the remaining cognate G protein subunits co-transfected (GRK2 too for Gαq-CFP with Gβ1-YFP; only the two probes for hM3R-CFP with YFP-PLCβ1); 10 μM Oxo-M applied and washed out. A general note: In BRET a luciferase serves as donor, and the signal depends on an acceptor being close.

The chains behind the UniProt entries cited, without tags or fusion partners. Where a name states a change or a piece, a line headed by the entry shows the natural chain unless it says otherwise.
UniProt P21279: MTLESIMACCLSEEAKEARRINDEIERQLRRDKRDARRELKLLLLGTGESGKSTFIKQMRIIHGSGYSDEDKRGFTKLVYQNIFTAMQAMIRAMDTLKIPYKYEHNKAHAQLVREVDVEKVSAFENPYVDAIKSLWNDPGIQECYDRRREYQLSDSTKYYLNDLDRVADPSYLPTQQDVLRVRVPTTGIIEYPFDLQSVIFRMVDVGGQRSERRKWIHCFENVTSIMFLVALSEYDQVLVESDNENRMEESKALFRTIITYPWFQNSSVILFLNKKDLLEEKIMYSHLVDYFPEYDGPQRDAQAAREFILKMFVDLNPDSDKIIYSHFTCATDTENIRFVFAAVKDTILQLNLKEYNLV

For a further assay, the target named is hM3R-EYFP (human) (UniProt P20309). The description is as above.
Another assay has as its target hM3R-Cerulean (human) (UniProt P20309). Described as above.
Assay [1] concerns the target mouse Gαq-ECFP (mouse) (UniProt P21279). The assay is described as above.
Assay [2] shares this target. Description: FRET or BRET; as a3, in the presence of YM-254890 (inhibitor of GDP release from Gαq); 10 μM Oxo-M applied.

From publication PMC9992711, “Two-step structural changes in M3 muscarinic receptor activation rely on the coupled Gq protein cycle” (Nature Communications, 2023) come the findings set out here.

These are yes or no findings as the source states them, for the method shown. Binding seen in cells or lysates may run through a third protein. Some binding calls cover weakened binding; strength is not graded here. For some of these results: Tags and fused reporters may be left off the sequences shown.

On to “Gαq(Q209L)-ECFP (from UniProt P21279 1-359)”, for which the binding result in the assay with hM3R(3A)-EYFP (human) is reported as “no binding”; with hM3R-EYFP (human) it was “binds”.

Take “mouse Gαq-ECFP (from UniProt P21279 1-359)”: the binding result in the assay with hM3R(3A)-EYFP (human) is “no binding”; with hM3R-EYFP (human), “binds”.

B1: rat EYFP-PLCβ1 (enzyme, UniProt P10687 1-1216)
chain: MAGAQPGVHALQLKPVCVSDSLKKGTKFVKWDDDSTIVTPIILRTDPQGFFFYWTDQNKETELLDLSLVKDARCGKHAKAPKDPKLRELLDVGNIGHLEQRMITVVYGPDLVNISHLNLVAFQEEVAKEWTNEVFSLATNLLAQNMSRDAFLEKAYTKLKLQVTPEGRIPLKNIYRLFSADRKRVETALEACSLPSSRNDSIPQEDFTPDVYRVFLNNLCPRPEIDNIFSEFGAKSKPYLTVDQMMDFINLKQRDPRLNEILYPPLKQEQVQVLIEKYEPNSSLAKKGQMSVDGFMRYLSGEENGVVSPEKLDLNEDMSQPLSHYFINSSHNTYLTAGQLAGNSSVEMYRQVLLSGCRCVELDCWKGRTAEEEPVITHGFTMTTEISFKEVIEAIAECAFKTSPFPILLSFENHVDSPKQQAKMAEYCRLIFGDALLMEPLEKYPLESGVPLPSPMDLMYKILVKNKKKSHKSSEGSGKKKLSEQASNTYSDSSSVFEPSSPGAGEADTESDDDDDDDDCKKSSMDEGTAGSEAMATEEMSNLVNYIQPVKFESFETSKKRNKSFEMSSFVETKGLEQLTKSPVEFVEYNKMQLSRIYPKGTRVDSSNYMPQLFWNAGCQMVALNFQTVDLAMQINMGMYEYNGKSGYRLKPEFMRRPDKHFDPFTEGIVDGIVANTLSVKIISGQFLSDKKVGTYVEVDMFGLPVDTRRKAFKTKTSQGNAVNPVWEEEPIVFKKVVLPSLACLRIAAYEEGGKFIGHRILPVQAIRPGYHYICLRNERNQPLMLPAVFVYIEVKDYVPDTYADVIEALSNPIRYVNLMEQRAKQLAALTLEDEEEVKKEADPGETSSEAPSETRTTPAENGVNHTATLAPKPPSQAPHSQPAPGSVKAPAKTEDLIQSVLTEVEAQTIEELKQQKSFVKLQKKHYKEMKDLVKRHHKKTTELIKEHTTKYNEIQNDYLRRRAALEKSAKKDSKKKSEPSSPDHGSSAIEQDLAALDAEMTQKLIDLKDKQQQQLLNLRQEQYYSEKYQKREHIKLLIQKLTDVAEECQNNQLKKLKEICEKEKKELKKKMDKKRQEKITEAKSKDKSQMEEEKTEMIRSYIQEVVQYIKRLEEAQSKRQEKLVEKHKEIRQQILDEKPKLQMELEQEYQDKFKRLPLEILEFVQEAMKGKVSEDSNHGSAPPSLASDPAKVNLKSPSSEEVQGENAGREFDTPL
B1: the binding result with hM3R-Cerulean (human) is recorded as “binds”; in the assay with mouse Gαq-ECFP (mouse) [1] it was “binds”; with mouse Gαq-ECFP (mouse) [2] it was “no binding (condition: with YM-254890)”.
